# The campaign covered roughly 50,000 compounds. About 800 (1.6%) showed an effect of 50% or more. This is one part of the list.
# Biological target: Bcl-2-like protein 10 (Homo sapiens) (UniProt Q9HD36)
# Assay: TR3 peptide-Bcl-B binding displacers, biochemical primary FP assay, phenotype converters (AID 1240);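 note: 0% = Bcl-B with tracer peptide and DMSO and 100% = tracer peptide lacking Bcl-B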
# Details: GST-Bcl-B / FITC-TR3 peptide fluorescence polarization; stronger effect = higher value; compound at 3.75 mg/L
# UniProt Q9HD36, sequence (Q9HD36 whole entry, looked up): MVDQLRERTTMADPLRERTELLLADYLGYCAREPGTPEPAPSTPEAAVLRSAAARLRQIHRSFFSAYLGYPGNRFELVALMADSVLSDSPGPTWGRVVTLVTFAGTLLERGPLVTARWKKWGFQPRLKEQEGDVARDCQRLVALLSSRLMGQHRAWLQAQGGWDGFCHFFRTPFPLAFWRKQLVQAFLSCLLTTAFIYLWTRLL
row,SMILES,displacement
1,O=C(NCCNc1ccc(Cl)cc1[N+](=O)[O-])c1cc2ccccc2o1,3.1%
2,O=C1/C(=C/c2cccs2)SC(=S)N1Nc1ccccc1,-8.4%
3,O=C1C=CC(=NS(=O)(=O)c2ccc(Cl)c([N+](=O)[O-])c2)C=C1,-9.6%
4,COC(=O)C1=C(C)NC2=C(C(=O)CC(c3ccccc3)C2)C1c1cccc(I)c1 (stereo not given),-1.7%
5,COC(C(=O)N/N=C(\C)c1ccc2c(c1)OCCO2)c1ccccc1 (stereo not given),-2.7%
6,COc1ccc(C2NC(=S)NC(C)=C2C(=O)Nc2ccccc2Cl)c(OC)c1 (stereo not given),-25.2%
7,Cc1c(N/C=C/C(=O)c2ccc(Br)cc2)c(=O)n(-c2ccccc2)n1C,-4.2%
8,Cc1cc(C(=O)Nc2nc(-c3ccccc3)c(C)s2)ccc1[N+](=O)[O-],-14.3%
9,COc1cc(C(=O)N=Nc2c(O)[nH]c3ccc(Br)cc23)cc(OC)c1OC,11.5%
10,CC(C)c1ccc(/C=C2\SC(=S)NC2=O)cc1[N+](=O)[O-],-17.4%
11,CCOC(=O)c1csc(NC(=O)c2cc(OC)c(OC)c(OC)c2)n1,-17.8%
12,Cc1ccc([N+](=O)[O-])cc1NC(=S)NC(=O)c1ccc(Cl)cc1,-7.3%
13,C/C(=N\NC(=O)c1[nH]nc(-c2ccccc2)c1C)c1ccc(O)cc1,-14.8%
14,Cc1ccc(C)c(OCCCCN2CCCC2)c1C,18.4%
15,CC1(C)Cc2ccccc2/C(=C(\C#N)C(=O)Nc2cccc([N+](=O)[O-])c2)N1,18.3%
16,CC(=O)C1=C(C)NC(c2ccccc2)NC1c1ccccc1 (stereo not given),4.5%
17,Cc1ccc(C)c(OCC(O)CN2CCN(c3ccccc3)CC2)c1 (stereo not given),-4%
18,COC(=O)c1ccc(/C=C2/SC(=O)N(CNc3ccc(OC)c(Cl)c3)C2=O)cc1,-5.7%
19,O=C(c1ccc(Br)cc1)N1CCN(c2nc3ccc([N+](=O)[O-])cc3s2)CC1,3.2%
20,CCOC(=O)c1sc(NC(=O)c2ccc(OC)c(OC)c2)c(C(N)=O)c1C,6.3%
21,COc1ccccc1C/C(N)=N/OC(=O)COc1ccc(C(C)(C)C)cc1,-11.6%
22,C=CCN1C(=O)C(=O)c2cc(Br)ccc21,-3.8%
23,CCOc1ccc(NC(=O)c2ccc(I)cc2)cc1,9.1%
24,COc1ccc(Br)cc1C(=O)Nc1ccc(-c2nc3cc(C)c(C)cc3o2)c(O)c1,0.9%

row,SMILES,displacement
1,O=C(Nc1cc(NC(=O)C(F)(F)F)cc([N+](=O)[O-])c1)C(F)(F)F,-5.6%
2,COc1ccc2c(Cl)c(C(=O)N/N=C/c3ccccn3)sc2c1,7.8%
3,O=c1oc(-c2ccco2)nc2ccc(Br)cc12,10.4%
4,C=CCN1C(=O)/C(=C\c2cc(Br)ccc2OCCOc2cccc(OC)c2)SC1=S,-43.6%
5,Cc1ccc(N2C(=O)Cn3c2nc2c3c(=O)n(C)c(=O)n2C)cc1Cl,-12.5%
6,CC(C)CN1C(=O)c2ccc(Oc3ccc([N+](=O)[O-])cc3)cc2C1=O,10%
7,O=C(O)C1CC=CCC1C(=O)N1CCN(c2ccccc2)CC1 (stereo not given),0.3%
8,O=C(NC1Sc2ccccc2N=C1c1ccccc1)c1ccco1 (stereo not given),5.4%
9,NC(=S)N/N=C/c1cc2c(cc1[N+](=O)[O-])OCO2,-4.6%
10,COc1ccccc1NC(=O)C(C)Oc1ccc(Cl)cc1C (stereo not given),-1.3%
11,OCc1nc2ccccc2n1Cc1ccccc1F,-0.5%
12,COc1cc2ccccc2cc1C(=O)Nc1ccc(Cl)cn1,0.8%
13,COc1ccccc1-c1coc2c(CN(C)C)c(O)ccc2c1=O,12.5%
14,Cc1ccccc1N1C(=O)C(O)=C(C(=O)/C=C/c2ccccc2)C1c1ccc([N+](=O)[O-])cc1 (stereo not given),-0.8%
15,COc1cc(C(O)C[N+](=O)[O-])ccc1OCc1ccccc1 (stereo not given),8.7%
16,Cc1ccc(/C=C/C(=O)NC(=S)Nc2ccc(S(=O)(=O)N=C(N)N)cc2)cc1,12.2%
17,Cc1ccc(S(=O)(=O)NC(Cc2ccccc2)C(=O)Nc2nc3ccc(C)cc3s2)cc1 (stereo not given),-5.1%
18,COc1ccc(S(=O)(=O)N(CC(=O)Nc2ccc(C)cc2C)Cc2ccccc2)cc1OC,-72.4%
19,CN(C)c1ccc(-c2ncnn2-c2ccc(Cl)cc2)cc1,0.1%
20,COc1cccc(-c2csc(/C(C#N)=C/c3ccc(C)o3)n2)c1,-113%
21,Cc1ccc(OCCN2CCCC2)cc1C,1.6%
22,Cc1nc(SCC(=O)Nc2nnc(-c3ccccc3)s2)n[nH]1,11.9%
23,Cc1sc2nc(-c3ccc(OC(C)C)cc3)[nH]c(=O)c2c1C,-12.7%
24,C1CCc2sc3c(c2CC1)c1nnnn1c1nnnn31,12.2%

row,SMILES,displacement
1,CCOC(=O)C1=C(O)/C(=C/c2ccc(F)cc2)SC1=Nc1ccccc1,-10.3%
2,CCOc1ccc(C(=O)NCc2ccco2)cc1,9.8%
3,COC(=O)C(C)Oc1cc2oc(=O)cc(-c3ccccc3)c2cc1Cl (stereo not given),10.3%
4,CCOC(=O)c1c(C)nc2ccc(Cl)cc2c1-c1ccccc1,11.8%
5,COc1ccc(CCNC(=O)CN(Cc2ccccc2)S(=O)(=O)c2ccc(OC)c(OC)c2)cc1,-5.7%
6,O=C(NCC1CCCO1)c1nn2c(c1Cl)NC(c1cccs1)CC2C(F)(F)F (stereo not given),-0.1%
7,CC(=O)c1ccc(NC(=O)c2cc(=O)[nH]c3ccccc23)cc1,8.9%
8,CC(C)(CO)N=C1NS(=O)(=O)c2cc([N+](=O)[O-])ccc21,-16.2%
9,COc1ccccc1C(=O)O/N=C1/C(=O)N(C)c2ccccc21,-10%
10,COc1ccc(C2=NN(c3nc(-c4ccc(F)cc4)cs3)C(c3ccc(OC)cc3)C2)cc1 (stereo not given),12%
11,COc1ccccc1OCCCOc1c(Cl)cccc1Cl,4.5%
12,OC(COc1ccc(Br)cc1)Cn1cnc2ccccc21 (stereo not given),-13.4%
13,CC(=O)Nc1ccc(C(=O)Nc2ccc(Br)cc2C)cc1,-10.4%
14,CCOC(=O)c1c(-c2ccc(-c3ccccc3)cc2)csc1NC(=O)C1CC1,9.6%
15,O=[N+]([O-])c1ccccc1S(=O)(=O)NC1CCS(=O)(=O)C1 (stereo not given),9.8%
16,O=C1CC(c2ccc(Cl)c([N+](=O)[O-])c2)c2cc(Br)c3ccccc3c2N1 (stereo not given),-3%
17,COc1ccc(C(=O)/C=C/Nc2ccc(Br)c(Cl)c2)cc1,11.8%
18,O=C(CCC1CCCC1)NC1CCCCCCC1,0%
19,COC(=O)C1=C(C)NC2=C(C(=O)CCC2)C1c1ccc(Br)cc1 (stereo not given),6.2%
20,Cc1cc(Cl)ccc1NCC(=O)NN,-8.7%
21,O=C(CC1Sc2ccccc2NC1=O)Nc1ccccc1NC(=O)CC1Sc2ccccc2NC1=O (stereo not given),9%
22,COC(=O)C1=C(C)N(Cc2ccc(OC)cc2)C(=O)/C1=C\c1ccc([N+](=O)[O-])cc1,-37.1%

# — PubChem BioAssay AID1240 (Sanford-Burnham Center for Chemical Genomics, 2008)
